# Measurements from the supplement of paper PMC7826260.
# Some of the results follow. Each Rep nickase domain was tested in vitro on the same pool of single strands at 3 µM enzyme and 37 °C for 1 h; the strands have 90 letters, of which the middle is given. Uncut reads are compared with the no-enzyme pool on a log2 scale; uncut sequences lie near 0, cut ones below; no hit call is given. The scaling is to total reads; uncut strands gain when others are lost, and binding without cutting may add a little.
# System: T1, Rep nickase domain of Muscovy duck circovirus
# T1 sequence (residues 1-111 of Rep, tag left off): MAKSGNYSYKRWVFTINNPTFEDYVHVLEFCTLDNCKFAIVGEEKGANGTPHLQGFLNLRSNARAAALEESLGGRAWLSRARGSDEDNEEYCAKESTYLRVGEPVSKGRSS
# Assay: uncleaved DNA left, log2 of reads against the no-enzyme library (log2 ratio); higher = less cleavage (more negative = more Rep cleavage of the k-mer); sequences stand for … in CTCGTCCG…ACCGGAGA
# Experimental: (§1)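 A pool of 90-nt single-stranded DNAs with seven random bases just before the constant AC of the nick site (name = the seven bases) was cut by 3 µM recombinant His6-SUMO-tagged Rep nickase domain (300 nM DNA, 50 mM HEPES pH 8.0, 50 mM NaCl, 1 mM MnCl2, 1 h, 37 °C, three replicates). Uncut DNA was amplified and sequenced.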
row,Sequence,uncleaved DNA left (log2)
1,GTCAACA,-0.00599
2,ACTGTGT,0.0682
3,GTCGACC,0.116
4,TTCTTCC,-0.00113
5,AACAAGT,0.0824
6,GCATGAG,0.0907
7,ATTCACA,-0.0612
8,GAACCAC,0.0144
9,AGATGGC,-0.0406
10,GTGCAAT,0.00928
11,CCCTCAG,-0.17
12,GTGGATA,0.0227
13,CTAACTA,0.0548
14,AACTTGC,-0.0671
15,AGTTCTA,-0.137
16,GTGGTTT,0.00567
17,CGGGACG,0.071
18,AACACTC,-0.0394
19,TGCGCCG,0.00644
20,CCATCTA,0.0255

row,Sequence,uncleaved DNA left (log2)
1,TAACTGT,-0.0755
2,GGGCACA,-0.0338
3,CCTAGCT,0.107
4,TGGAAGG,0.168
5,CTCACAA,0.125
6,CGAGATC,0.0642
7,TGATTAA,0.162
8,GTAAAGC,0.0221
9,TGCTACG,-0.121
10,GATCGTC,0.142
11,TGTAATG,0.04
12,CCATGGA,0.136
13,ATACGCA,0.117
14,ATGACCA,-0.0778
15,CTCGATT,-0.0033
16,AACCATA,-0.131
17,CCGGAGA,0.00377
18,GGCGCTA,0.00197
19,ATTTAGC,0.088
20,CTGTATG,-0.204

# System: T2, Rep nickase domain of banana bunchy top virus
# T2 sequence (residues 1-94 of Rep, tag left off): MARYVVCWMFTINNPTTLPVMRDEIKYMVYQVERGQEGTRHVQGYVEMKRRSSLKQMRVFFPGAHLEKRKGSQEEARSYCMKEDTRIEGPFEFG
# Assay: as above
# Experimental: as §1
row,Sequence,uncleaved DNA left (log2)
1,GTCAACA,0.144
2,ACTGTGT,-0.0381
3,GTCGACC,0.0936
4,TTCTTCC,-0.0791
5,AACAAGT,0.122
6,GCATGAG,-0.00367
7,ATTCACA,-0.0157
8,GAACCAC,-0.0287
9,AGATGGC,0.0157
10,GTGCAAT,0.174
11,CCCTCAG,-0.191
12,GTGGATA,0.175
13,CTAACTA,0.0722
14,AACTTGC,-0.0669
15,AGTTCTA,-0.0419
16,GTGGTTT,-0.115
17,CGGGACG,0.148
18,AACACTC,-0.0805
19,TGCGCCG,-0.147
20,CCATCTA,0.096

row,Sequence,uncleaved DNA left (log2)
1,TAACTGT,0.0126
2,GGGCACA,0.172
3,CCTAGCT,-0.143
4,TGGAAGG,0.132
5,CTCACAA,0.067
6,CGAGATC,0.16
7,TGATTAA,0.0984
8,GTAAAGC,0.022
9,TGCTACG,-0.17
10,GATCGTC,-0.00857
11,TGTAATG,-0.0194
12,CCATGGA,0.111
13,ATACGCA,-0.00335
14,ATGACCA,-0.149
15,CTCGATT,-0.346
16,AACCATA,-0.0961
17,CCGGAGA,-0.0466
18,GGCGCTA,-0.00539
19,ATTTAGC,-0.00377
20,CTGTATG,-0.23

# System: T3, Rep nickase domain of cabbage leaf curl virus
# T3 sequence (residues 1-116 of Rep, tag left off): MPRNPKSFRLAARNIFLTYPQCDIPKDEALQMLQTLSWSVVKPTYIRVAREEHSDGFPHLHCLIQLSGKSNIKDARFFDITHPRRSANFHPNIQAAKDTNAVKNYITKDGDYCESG
# Assay: as above
# Experimental: as §1
row,Sequence,uncleaved DNA left (log2)
1,GTCAACA,0.395
2,ACTGTGT,-0.369
3,GTCGACC,0.245
4,TTCTTCC,0.166
5,AACAAGT,0.0294
6,GCATGAG,-0.51
7,ATTCACA,-0.0793
8,GAACCAC,0.141
9,AGATGGC,-0.166
10,GTGCAAT,0.299
11,CCCTCAG,-0.691
12,GTGGATA,0.638
13,CTAACTA,-0.295
14,AACTTGC,-0.863
15,AGTTCTA,0.087
16,GTGGTTT,0.28
17,CGGGACG,0.792
18,AACACTC,-0.0751
19,TGCGCCG,-0.474
20,CCATCTA,-0.149

row,Sequence,uncleaved DNA left (log2)
1,TAACTGT,-1.19
2,GGGCACA,0.863
3,CCTAGCT,-0.196
4,TGGAAGG,0.511
5,CTCACAA,0.0952
6,CGAGATC,0.303
7,TGATTAA,0.113
8,GTAAAGC,0.11
9,TGCTACG,-0.695
10,GATCGTC,0.243
11,TGTAATG,-0.323
12,CCATGGA,-0.199
13,ATACGCA,-0.317
14,ATGACCA,-0.00058
15,CTCGATT,-0.0437
16,AACCATA,-0.317
17,CCGGAGA,0.0711
18,GGCGCTA,0.276
19,ATTTAGC,-0.432
20,CTGTATG,-0.704

# System: T4, Rep nickase domain of chickpea chlorotic dwarf virus
# T4 sequence (residues 1-124 of Rep, tag left off): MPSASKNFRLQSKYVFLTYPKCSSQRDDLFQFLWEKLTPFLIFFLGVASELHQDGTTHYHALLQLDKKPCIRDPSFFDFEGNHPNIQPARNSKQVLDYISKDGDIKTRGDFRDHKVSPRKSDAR
# Assay: as above
# Experimental: as §1
row,Sequence,uncleaved DNA left (log2)
1,GTCAACA,0.597
2,ACTGTGT,-0.622
3,GTCGACC,0.701
4,TTCTTCC,-0.195
5,AACAAGT,-0.932
6,GCATGAG,0.185
7,ATTCACA,-1.58
8,GAACCAC,0.0132
9,AGATGGC,-0.245
10,GTGCAAT,1.03
11,CCCTCAG,-0.565
12,GTGGATA,1.36
13,CTAACTA,-1.99
14,AACTTGC,-0.336
15,AGTTCTA,-0.432
16,GTGGTTT,0.735
17,CGGGACG,1.66
18,AACACTC,-0.748
19,TGCGCCG,-0.61
20,CCATCTA,-1.34

row,Sequence,uncleaved DNA left (log2)
1,TAACTGT,-2.61
2,GGGCACA,1.93
3,CCTAGCT,-0.429
4,TGGAAGG,1.15
5,CTCACAA,-0.305
6,CGAGATC,0.334
7,TGATTAA,-0.0067
8,GTAAAGC,0.464
9,TGCTACG,-1.08
10,GATCGTC,0.503
11,TGTAATG,-0.219
12,CCATGGA,-0.14
13,ATACGCA,-0.949
14,ATGACCA,-0.012
15,CTCGATT,-2.15
16,AACCATA,-2.58
17,CCGGAGA,0.474
18,GGCGCTA,0.879
19,ATTTAGC,-0.657
20,CTGTATG,-0.598

# System: T5, Rep nickase domain of faba bean necrotic yellows virus
# T5 sequence (residues 1-98 of Rep, tag left off): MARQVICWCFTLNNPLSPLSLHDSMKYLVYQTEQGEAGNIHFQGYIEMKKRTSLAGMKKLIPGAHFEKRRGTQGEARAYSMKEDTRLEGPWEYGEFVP
# Assay: as above
# Experimental: as §1
row,Sequence,uncleaved DNA left (log2)
1,GTCAACA,0.0719
2,ACTGTGT,-0.144
3,GTCGACC,0.0636
4,TTCTTCC,0.0604
5,AACAAGT,0.0209
6,GCATGAG,0.149
7,ATTCACA,0.00761
8,GAACCAC,0.0171
9,AGATGGC,0.00588
10,GTGCAAT,-0.0999
11,CCCTCAG,-0.0808
12,GTGGATA,-0.0446
13,CTAACTA,0.179
14,AACTTGC,-0.0447
15,AGTTCTA,-0.0434
16,GTGGTTT,-0.0641
17,CGGGACG,0.0642
18,AACACTC,-0.0191
19,TGCGCCG,-0.0843
20,CCATCTA,0.0682

row,Sequence,uncleaved DNA left (log2)
1,TAACTGT,-0.112
2,GGGCACA,-0.0299
3,CCTAGCT,-0.0152
4,TGGAAGG,0.116
5,CTCACAA,0.184
6,CGAGATC,0.174
7,TGATTAA,0.214
8,GTAAAGC,0.000734
9,TGCTACG,-0.0832
10,GATCGTC,-0.0124
11,TGTAATG,0.0659
12,CCATGGA,0.151
13,ATACGCA,0.0273
14,ATGACCA,-0.0806
15,CTCGATT,0.0344
16,AACCATA,-0.0696
17,CCGGAGA,-0.124
18,GGCGCTA,-0.0449
19,ATTTAGC,0.055
20,CTGTATG,0.037
